Self-cleavage data for 56 variants are collected here from the RNAGym collection of RNA variant scans (doi:10.7554/elife.90254).

The source gives no read counts; variants with many changes may rest on few reads.

To fix the notation:
B1: LINE1-mini (parent)
chain: GGCAGAGCUCAACACAGCGUGGCAAAGUGGCUGUGGCUAGACUGCC

In this series the parent is B1. Description: self-cleavage, relative activity (ratio to wild type); higher = more cleavage; in vitro, sequencing; the parent is a self-cleaving ribozyme.
GGAAGUGCUCAACACAGCGUGGCAAAGUGGCUGUGGCGAGACUGCC [C3A A6U U38G]: the self-cleavage was 0.09.
The same measure for GGAAGAGCUCAACACAGCGUGGCAAUGUGGCUUUGGCUAGACUGCC [C3A A26U G33U]: 0.18; for GGAAGAGCUCAACCCAGCGUGUCAAAUUGGAUGUGGCUAGACUGCC [C3A A14C G22U G27U C31A]: 0.04; for GGAAGAGCUCACCACAGCGUGGCAAAGUGGCUGUGGCUAGACUUCC [C3A A12C G44U]: 0.03.
The same measure for GGAAGAGCUCCACACAGCGUGGAAAAGUGGCUGUGGCUAGAAUGCC [C3A A11C C23A C42A]: 0.
The same measure for GGAAGAGCUCAACACAGCGUGGCAGUGUGGCUUUGGCUAGACUGCC [C3A A25G A26U G33U]: 0.15; for GGAAGAGCUCAACACAGCGUGGCAAGGUGGCUGUGUCUAGACUGCC [C3A A26G G36U]: 0.16.
For GGAAGUGCUCAACACAGCGUGGCAAAGUGGUUGUGGCUAGACUGCC [C3A A6U C31U], the self-cleavage is 0.15.
Regarding GGAAGAGCUCAACUCAGCGCGGCAAAGUUGCUGUGGCUAGACUGCC [C3A A14U U20C G29U], the self-cleavage was determined as 0.67.
For GGAAGAGCUCAACACCGCGUGGCAAAGUGGCAGAGGCUAGACUGCC [C3A A16C U32A U34A], the self-cleavage is 0.08.
The same measure for GGAAGAGCUCAACCCGGCGUGGCAAAGUGGCUGUGGCUAGACUGCC [C3A A14C A16G]: 0.28; for GGAAGAGCUCACCACAGAGUGGAAAAGUGGCUGUGGCUUGCCUGCC [C3A A12C C18A C23A A39U A41C]: 0.01; for GGAAGAGCUCAACACUACGUGGCAAAGUGGCUGUGGCUGGAAGGCC [C3A A16U G17A A39G C42A U43G]: 0.07.
To GGAAGAGCUCAACACAGCGUGGCAAAGUGGCUGUGGCUCGAGUGCC [C3A A39C C42G] belongs 0.08.
Take GGAAGAGCUCAACACAGCGUGGCAAUGUGGCUGUGGCUGGACUGCC [C3A A26U A39G]: the self-cleavage amounted to 0.93.
To GGAAGAGCUCAACACUGCGAGGCAUAGUGGCUGUGGCUAGACUGCC [C3A A16U U20A A25U] belongs 0.7; to GGAAGAGCUCAACUCACCGUGCCAAAGUGGCUGUGGCAAGACUGCC [C3A A14U G17C G22C U38A], 0.08; to GGAAGAGCUCAACGCAGCGUGGCAAAGUGGCUGUGGCUACACUGCC [C3A A14G G40C], 0.17.
The same measure for GGAAGAGCUCUACACAGCUUGGCAAAGUGGCUGUGGCUAGACCGGC [C3A A11U G19U U43C C45G]: 0.01.
To GGAAGAGCUCAACGCAGCGUGGCAUAGUGGCUGUGGCUAGACUGCC [C3A A14G A25U] belongs 0.63; to GGAAGAGCUCCACACAGCGUGGCAAAGUGGAUGUGAGUAGACUGCC [C3A A11C C31A G36A C37G], 0.01.
For the variant GGAAGAGCUCAACACAGCGUGGCGAGGUGGCUGUGGCUAGCCUGCC [C3A A24G A26G A41C], the self-cleavage was determined as 0.13.
To GGAAGAGCUCAACACUGCGUGGCAAAGUGGCUGGGUCUAGACUGCC [C3A A16U U34G G36U] belongs 0.08; to GGAAGUGCUCAACACAGCGUGGCAAAGUGGCUGUGGGUAGACUGUC [C3A A6U C37G C45U], 0.14; to GGAAGAGCUCAACUCAGGGUGGCAAAGUGGCUGUGGCUAGACAGCC [C3A A14U C18G U43A], 0.04.
In the case of GGAAGAGAUCAACACAGCGUGGCAAGGUGGCUGUGGCUAGACUUCC [C3A C8A A26G G44U], the self-cleavage is 0.37.
Take GGAAGAGCUCGACACAGCGUGGCCAAGUGGCUGUGGCUAGACUGCC [C3A A11G A24C]: the self-cleavage amounted to 0.02.
Consider GGAAGAGCUCAACACAGCGUGGCCAAGUGCCUGUGGUUAGACUUCG [C3A A24C G30C C37U G44U C46G], for which the self-cleavage worked out at 0.07.
To GGAAGAGCUCAACACAGCGUGGCUACGUGGCUGUUGAUAGACUGCC [C3A A24U A26C G35U C37A] belongs 0.14; to GGAAGAGCUCAACACAGCGUGGCCAAGUGGCUGUAGCUAGACUGCU [C3A A24C G35A C46U], 0.13.
For the variant GGAAGAGCUCAGCACAGCGUGGCAAAGUGGCAGUGGCUAGACUGCC [C3A A12G U32A], the self-cleavage worked out at 0.64.
To GGAAGAGCUCAACGCAGCGUGGCAAAGUGACUGUGGCUAGACUGCC [C3A A14G G30A] belongs 1.07.
The same measure for GGAAGAGCUCAUCAUAGCGUGGCAAAGUGUCUGUGGUUAGACUGAC [C3A A12U C15U G30U C37U C45A]: 0.07; for GGAAGAGCUCAACACCGCGUAGGAAAGUGGCUGUGGCUGGACAGCC [C3A A16C G21A C23G A39G U43A]: 0.1.
For GGAAGAGCUCUACAAAGCGUGGCAAAGUGGCUGUGGCCAGACUACC [C3A A11U C15A U38C G44A], the self-cleavage was 0.02.
To GGAAGAGCUCAACUUAGCGUGGCAAAUUGGCUGUGGCUAGACUGCC [C3A A14U C15U G27U] belongs 0.13; to GGAAGAGCUCACCACAGCGUGGCAAAGUGGCUGUGGCUAUACUGCC [C3A A12C G40U], 0.13; to GGAAGAGCUCAACUCAGAGUUGAAAAGUGGCUGUGGCUAGACUGCC [C3A A14U C18A G21U C23A], 0.05.
To GGAAGAGCUCAACACAGCGUGGCAUGGUGGCUGUCGCUAGACUGCC [C3A A25U A26G G35C] belongs 0.14.
To GGAAGAGCUCAACUCAGCGCGGAAAAGUGGCUGUGGCUAGACGGCC [C3A A14U U20C C23A U43G] belongs 0.07; to GGAAGAGCUCAACACCGCGUGGCAAAGUGGCUGCGGCUAGACUGCC [C3A A16C U34C], 0.13.
As to GGAAGAGCUCAACGCAGCGUGGAAACGUGGCAGUGGCUAGACUGCC [C3A A14G C23A A26C U32A], the self-cleavage was 0.08.
The same measure for GGAAGAGCUCACCACAGCGUGGCAAAAUGGCUGUGGCUAGACUGCC [C3A A12C G27A]: 0.05; for GGAAGAGCUCAACACGGCGUGGCAAUGGGGCCGUGGCUAGACCGCC [C3A A16G A26U U28G U32C U43C]: 0.15; for GGAAGAGCUCAACACGGCGUGGUAAAGUGGCUGUGGUUACACUGUC [C3A A16G C23U C37U G40C C45U]: 0.03.
Consider GGAAGAGCUCAACUCGGCGUGGCAAAGUGGCUGUGGCUAAACUGCC [C3A A14U A16G G40A], for which the self-cleavage is 0.13.
The same measure for GGAAGAGCUCGACACACCGUGGCAAAGUGGCUGUGGCUAGACCGCC [C3A A11G G17C U43C]: 0.03; for GGAAGAGCUCAACACAGCGUGGCAAAGUGGCUGUGGCUAGCCUGAC [C3A A41C C45A]: 0.16.
GGAAGAGCUCAACACUGCGUGGCACAGUGGCUGUGGCUACACUGCA [C3A A16U A25C G40C C46A]: the self-cleavage came out at 0.03.
To GGAAGAGCUCAUCACAGCGUGGCAAAGUGGCUGUGGCUAGACUGGC [C3A A12U C45G] belongs 0.09; to GGAAGAGCUCAACACAGCGUGGCGAAGAGGCUGUGGCUAGACUGGC [C3A A24G U28A C45G], 0.34; to GGAAGAGCUCAACACUGCGCGGCAAAGUGGCUGUGACUAGACUGCC [C3A A16U U20C G36A], 0.32.
The same measure for GGAAGAGCUCAACACAGCGUGGCAAUGUGGCUGUGGUUAGACUACG [C3A A26U C37U G44A C46G]: 0.06; for GGAAGAGCUCAACACUGCGUGGCAAAGUGGCUGUGGCUAGAUUGCC [C3A A16U C42U]: 0.11.
To GGAAGAGCUCAACACUGCGUGGCAAAGUGGCUGGGGCUGGACUGCC [C3A A16U U34G A39G] belongs 0.06; to GGAAGAGCUCGACACAGCGUGGCAUAGUGGCUGUGUCUAGACUGCC [C3A A11G A25U G36U], 0.
